Test results reported in the supplement of paper PMC4604168 (melanoma cell lines).
This is one part of the list. Single values are uncertain, as repeats are few or missing.

Experiments:
Test in all cases: cell count relative to DMSO control; melanoma cells; higher = more viable cells
Details in all cases: library dose: standard library concentration; 72 h
[1] = tested on: SkMel28
[2] = tested on: SkMel2
[3] = tested on: SkMel30
[4] = tested on: SkMel5
[5] = tested on: UACC257
[6] = tested on: UACC62
[7] = tested on: WM115
[8] = tested on: WM1716
[9] = tested on: WM1745
[10] = tested on: WM3526
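Note: cells treated in 1,536-well plates, then fixed and DAPI-stained, with nuclei counted from automated high-throughput microscope images.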

Compound	cell count [1]	cell count [2]	cell count [3]	cell count [4]	cell count [5]	cell count [6]	cell count [7]	cell count [8]	cell count [9]	cell count [10]
CC1(C)CCC(c2ccc(Cl)cc2)=C(CN2CCN(c3ccc(C(=O)NS(=O)(=O)c4ccc(N[C@H](CCN5CCOCC5)CSc5ccccc5)c(S(=O)(=O)C(F)(F)F)c4)cc3)CC2)C1 + Cc1ccc(NC(=O)c2cccc(N(C)C)c2)cc1NC(=O)c1ccc(O)cc1 [ZM336372] (first compound 2 µM, partner dose 10 µM)	69.3%	57.8%	79.8%	68.3%	42.1%	85.5%	75.7%	63.5%	1.45%	79.9%
O=C(/C=C/c1cccnc1)NCCCCC1CCN(C(=O)c2ccccc2)CC1 + NC(=O)c1ccc(N(C(N)=O)c2c(F)cccc2F)nc1-c1ccc(F)cc1F [VX702] (first compound 0.05 µM, partner dose 2 µM)	69.5%	8.94%	132%	95.1%	106%	78.6%	67.3%	103%	75.2%	81.1%
Cc1ccc(Nc2nccc(N(C)c3ccc4c(C)n(C)nc4c3)n2)cc1S(N)(=O)=O [Pazopanib] + Cc1ccc(NC(=O)c2cccc(N(C)C)c2)cc1NC(=O)c1ccc(O)cc1 [ZM336372] (first compound 2 µM, partner dose 10 µM)	77.8%	77.9%	92.5%	72%	83.4%	56.8%	77.4%	89.7%	67.9%	80.7%
O=C(/C=C/c1cccnc1)NCCCCC1CCN(C(=O)c2ccccc2)CC1 + C[C@]1(O)C[C@@H](c2nc(-c3ccc4ccc(-c5ccccc5)nc4c3)c3c(N)nccn32)C1 [OSI906] (first compound 0.05 µM, partner dose 2 µM)	75%	15.5%	82.5%	69.2%	114%	83.8%	108%	93%	81.9%	88.2%
O=C(/C=C/c1cccnc1)NCCCCC1CCN(C(=O)c2ccccc2)CC1 + C#Cc1cccc(Nc2ncnc3cc(OCCOC)c(OCCOC)cc23)c1 [erlotinib] (first compound 0.05 µM, partner dose 4 µM)	54.8%	21.8%	80.7%	67.7%	98%	43.1%	64.9%	81%	42.6%	70.2%
CC1(C)CCC(c2ccc(Cl)cc2)=C(CN2CCN(c3ccc(C(=O)NS(=O)(=O)c4ccc(N[C@H](CCN5CCOCC5)CSc5ccccc5)c(S(=O)(=O)C(F)(F)F)c4)cc3)CC2)C1 + NC(=O)Nc1cc(-c2cccc(F)c2)sc1C(=O)N[C@H]1CCCNC1 [AZD7762] (first compound 2 µM, partner dose 0.1 µM)	21.1%	74.6%	69%	83.9%	30.7%	57%	48.8%	29.3%	3.1%	65%
O=C(/C=C/c1cccnc1)NCCCCC1CCN(C(=O)c2ccccc2)CC1 + CC(=O)c1c(C)c2cnc(Nc3ccc(N4CCNCC4)cn3)nc2n(C2CCCC2)c1=O [palbociclib] (first compound 0.05 µM, partner dose 0.2 µM)	30.1%	27.7%	69.7%	50.3%	66.8%	53.5%	45.6%	35.8%	64.2%	45.5%
Cc1ccc(Nc2nccc(N(C)c3ccc4c(C)n(C)nc4c3)n2)cc1S(N)(=O)=O [Pazopanib] + C=CCn1c(=O)c2cnc(Nc3ccc(N4CCN(C)CC4)cc3)nc2n1-c1cccc(C(C)(C)O)n1 [MK1775] (first compound 2 µM, partner dose 0.1 µM)	59.8%	107%	84.7%	60.4%	73.4%	73.1%	67.6%	80.2%	73.5%	75.3%
O=C(/C=C/c1cccnc1)NCCCCC1CCN(C(=O)c2ccccc2)CC1 + CC1(C)NC(=O)N(c2ccc([N+](=O)[O-])c(C(F)(F)F)c2)C1=O [nilutamide] (first compound 0.05 µM, partner dose 5 µM)	129%	24.4%	102%	129%	97%	80.1%	97.9%	89.9%	98.4%	96.6%
CC1(C)CCC(c2ccc(Cl)cc2)=C(CN2CCN(c3ccc(C(=O)NS(=O)(=O)c4ccc(N[C@H](CCN5CCOCC5)CSc5ccccc5)c(S(=O)(=O)C(F)(F)F)c4)cc3)CC2)C1 + O=C(O)[C@@H]1[O][Sb](=[O])([O][Sb]2(=[O])[O][C@H]([C@H](O)CO)[C@H](O)[C@H](C(=O)O)[O]2)[O][C@H]([C@H](O)CO)[C@@H]1O [stibogluconate] (first compound 2 µM, partner dose 10 µM)	72.1%	78.2%	43.7%	81.5%	40.9%	74.6%	88.8%	69.5%	4.28%	74.2%
O=C(/C=C/c1cccnc1)NCCCCC1CCN(C(=O)c2ccccc2)CC1 + OCc1c[nH]c2ccccc12 [Indole-3-carbinol] (first compound 0.05 µM, partner dose 4 µM)	96.6%	12.8%	109%	86.1%	95.2%	88.3%	96.1%	69.9%	92.9%	111%
CC1(C)CCC(c2ccc(Cl)cc2)=C(CN2CCN(c3ccc(C(=O)NS(=O)(=O)c4ccc(N[C@H](CCN5CCOCC5)CSc5ccccc5)c(S(=O)(=O)C(F)(F)F)c4)cc3)CC2)C1 + CN(C)S(=O)(=O)c1ccc2c(c1)/C(=C/c1cc3c([nH]1)CCCC3)C(=O)N2 [SU6656] (first compound 2 µM, partner dose 2 µM)	42.5%	59.4%	60%	70.5%	39.5%	64.1%	30.3%	51.5%	5.66%	62.5%
CC1(C)CCC(c2ccc(Cl)cc2)=C(CN2CCN(c3ccc(C(=O)NS(=O)(=O)c4ccc(N[C@H](CCN5CCOCC5)CSc5ccccc5)c(S(=O)(=O)C(F)(F)F)c4)cc3)CC2)C1 + Clc1ccc(Nc2nnc(Cc3ccncc3)c3ccccc23)cc1 [vatalanib] (first compound 2 µM, partner dose 10 µM)	46%	67.1%	30.3%	39.9%	28.9%	32.4%	38.8%	31.2%	2.73%	62.7%
O=C(/C=C/c1cccnc1)NCCCCC1CCN(C(=O)c2ccccc2)CC1 + OCCn1cc(-c2cnc3nnn(Cc4ccc5ncccc5c4)c3n2)cn1 [PF04217903] (first compound 0.05 µM, partner dose 5 µM)	60.5%	11.3%	94.2%	86.9%	89.3%	61.9%	74.4%	74.4%	90.5%	102%
O=C(/C=C/c1cccnc1)NCCCCC1CCN(C(=O)c2ccccc2)CC1 + Cn1cnc2c(F)c(Nc3ccc(Br)cc3Cl)c(C(=O)NOCCO)cc21 [selumetinib] (first compound 0.05 µM, partner dose 0.075 µM)	53.9%	23.1%	41.7%	87.7%	87.8%	67.6%	66%	69.4%	75.3%	48.4%
Cc1ccc(Nc2nccc(N(C)c3ccc4c(C)n(C)nc4c3)n2)cc1S(N)(=O)=O [Pazopanib] + COc1ccc(C2=N[C@@H](c3ccc(Cl)cc3)[C@@H](c3ccc(Cl)cc3)N2C(=O)N2CCNC(=O)C2)c(OC(C)C)c1 [Nutlin-3] (first compound 2 µM, partner dose 0.5 µM)	48.7%	87.9%	77.4%	55.2%	77.8%	47.4%	55.5%	75.4%	61.5%	87.4%
O=C(/C=C/c1cccnc1)NCCCCC1CCN(C(=O)c2ccccc2)CC1 + Cn1cncc1[C@@](N)(c1ccc(Cl)cc1)c1ccc2c(c1)c(-c1cccc(Cl)c1)cc(=O)n2C [tipifarnib] (first compound 0.05 µM, partner dose 0.05 µM)	52.3%	27%	101%	76.2%	87.6%	73.3%	60.9%	70.1%	118%	84.2%
O=C(/C=C/c1cccnc1)NCCCCC1CCN(C(=O)c2ccccc2)CC1 + CCN(CC)CCNC(=O)c1c(C)[nH]c(/C=C2\C(=O)Nc3ccc(F)cc32)c1C [sunitinib] (first compound 0.05 µM, partner dose 2 µM)	37.8%	22.1%	45%	55.2%	88.3%	51.7%	63.1%	72.4%	67.1%	56.5%
Cc1ccc(Nc2nccc(N(C)c3ccc4c(C)n(C)nc4c3)n2)cc1S(N)(=O)=O [Pazopanib] + Nc1ccn([C@@H]2O[C@H](CO)[C@@H](O)C2(F)F)c(=O)n1 [gemcitabine] (first compound 2 µM, partner dose 0.002 µM)	107%	115%	81.1%	76.7%	94.3%	46.7%	105%	69.2%	54.9%	88.5%
CC1(C)CCC(c2ccc(Cl)cc2)=C(CN2CCN(c3ccc(C(=O)NS(=O)(=O)c4ccc(N[C@H](CCN5CCOCC5)CSc5ccccc5)c(S(=O)(=O)C(F)(F)F)c4)cc3)CC2)C1 + COc1cc(Nc2ncc(F)c(Nc3ccc4c(n3)NC(=O)C(C)(C)O4)n2)cc(OC)c1OC [Tamatinib] (first compound 2 µM, partner dose 2 µM)	60%	67.1%	76.8%	58.4%	31.6%	60.9%	73.1%	76.1%	7.41%	65%
Cc1ccc(Nc2nccc(N(C)c3ccc4c(C)n(C)nc4c3)n2)cc1S(N)(=O)=O [Pazopanib] + Nc1cccc2c1CN(C1CCC(=O)NC1=O)C2=O [lenalidomide] (first compound 2 µM, partner dose 5 µM)	80.6%	104%	84.4%	85.7%	84.5%	69.7%	90.6%	83.8%	88.6%	79.3%
